Measured values: the antibiotic and cytotoxicity screens of Wong et al. (2023)
Some of the results follow.

Columns and labels:
HSkMC = human skeletal muscle cells; test: cytotoxicity call (relative viability < 0.9); conditions: 10 µM
HepG2 = test: cytotoxicity call (relative viability < 0.9); conditions: 10 µM
S. aureus RN4220 = test: growth inhibition call (relative growth <= 0.2); conditions: 50 µM

SMILES | cytotoxicity call (HSkMC) | cytotoxicity call (HepG2) | growth inhibition call (S. aureus RN4220)
C[C@@H]1CN([C@H](C)CO)C(=O)c2cc(NS(C)(=O)=O)ccc2O[C@@H]1CN(C)Cc1ccc(C(=O)Nc2ccccc2N)cc1 | inactive | inactive | inactive
CO[C@@H]1CN(C)C(=O)c2cc(NS(=O)(=O)CC(F)(F)F)ccc2OC[C@H](C)N(C(=O)NC(C)C)C[C@H]1C | inactive | inactive | inactive
C[C@H]1CN([C@@H](C)CO)C(=O)c2cc(NC(=O)c3ccncc3)ccc2O[C@@H]1CN(C)Cc1ccc(-c2ccccc2)cc1 | inactive | inactive | inactive
Cc1ccc(-c2ccc3c(c2)O[C@H](CN(C)C(=O)Nc2ccc(C(F)(F)F)cc2)[C@@H](C)CN([C@@H](C)CO)S3(=O)=O)cc1 | active | inactive | inactive
Cc1ccc(S(=O)(=O)Nc2cccc3c2O[C@@H](CN(C)Cc2ccc(-c4ccccc4)cc2)[C@H](C)CN([C@@H](C)CO)C3=O)cc1 | inactive | inactive | inactive
COc1ccc(CN(C)C[C@@H]2Oc3ccc(NC(=O)CCCCCC(=O)Nc4ccccc4N)cc3CC(=O)N([C@H](C)CO)C[C@H]2C)cc1 | inactive | inactive | inactive
C[C@H](CO)N1C[C@H](C)[C@H](CN(C)S(C)(=O)=O)Oc2ncc(-c3cccc(C(F)(F)F)c3)cc2C1=O | inactive | inactive | inactive
CC(C)NC(=O)N(C)C[C@H]1Oc2ccc(NC(=O)CCC(F)(F)F)cc2CC(=O)N([C@H](C)CO)C[C@@H]1C | inactive | inactive | inactive
C[C@@H]1CCCCO[C@H](CN(C)Cc2ccncc2)[C@@H](C)CN([C@H](C)CO)C(=O)c2cc(NC(=O)CCC(F)(F)F)ccc2O1 | inactive | inactive | inactive
CC(C)C#Cc1cnc2c(c1)C(=O)N([C@@H](C)CO)C[C@H](C)[C@H](CN(C)S(=O)(=O)c1cn(C)cn1)O2 | inactive | inactive | inactive
Cc1ccc(S(=O)(=O)N(C)C[C@@H]2Oc3c(NS(=O)(=O)c4ccc(F)cc4)cccc3C(=O)N([C@@H](C)CO)C[C@@H]2C)cc1 | inactive | inactive | inactive
O=C(CN1CCS(=O)(=O)CC1)NS(=O)(=O)c1ccccc1 | inactive | inactive | inactive
CC(=O)N(C)C1(c2ccccc2)CCN(CCC[C@]2(c3ccc(Cl)c(Cl)c3)CCCN(C(=O)c3ccccc3)C2)CC1 | active | active | inactive
C[C@@H]1CN([C@@H](C)CO)C(=O)c2cc(NC(=O)CCCN(C)C)ccc2O[C@@H](C)CCCCO[C@H]1CN(C)C(=O)Nc1cccc2ccccc12 | inactive | inactive | inactive
CN1C(=O)c2cc(NC(=O)Cc3cccs3)ccc2OC[C@H]2O[C@@H](CC(=O)NCCc3ccncc3)CC[C@H]21 | inactive | inactive | inactive
COc1cc2nccc(Oc3ccc(NC(=O)c4cn(C(C)C)c(=O)n(-c5ccc(F)cc5)c4=O)cc3F)c2cc1OC | active | active | inactive
CN1CCC(=C2c3ccccc3CCc3sccc32)CC1.O=C(O)CC(O)C(=O)O | inactive | inactive | inactive
C[C@@H]1CN([C@@H](C)CO)C(=O)CCCn2nncc2CO[C@H]1CN(C)S(=O)(=O)c1ccc2ccccc2c1 | inactive | inactive | inactive
Cn1c(=O)c2[nH]cnc2n(C)c1=O | inactive | inactive | inactive
O=C(O)C1CC(C2CCCCN2)CN2CCCCC12 (centres undefined) | inactive | inactive | inactive
CC(C)=CC[C@H]1O[C@]2(O)[C@@H]([C@H]3CC[C@@H]4[C@@]5(C)CC[C@H](O[C@@H]6O[C@H](CO[C@@H]7O[C@@H](C)[C@H](O)[C@@H](O)[C@H]7O)[C@@H](O)[C@H](O)[C@@H]6O)C(C)(C)[C@@H]5CC[C@@]4(C)[C@]3(C)[C@H]2O)[C@@]1(C)O[C@@H]1O[C@@H](C)[C@H](O)[C@@H](O)[C@H]1O | inactive | inactive | inactive
Cn1cnc(S(=O)(=O)N2C[C@H](O)COC[C@@H]3O[C@@H](CC(=O)NC4CCCC4)CC[C@H]32)c1 | inactive | inactive | inactive
C[C@@H]1CN([C@@H](C)CO)C(=O)c2cc(NC(=O)Nc3ccccc3)ccc2O[C@H]1CN(C)S(C)(=O)=O | inactive | inactive | inactive
CCOC(=O)C1=C(C)NC(C)=C(C(=O)OC)C1c1cccc([N+](=O)[O-])c1 (centres undefined) | inactive | inactive | inactive
C[C@@H]1CN([C@H](C)CO)C(=O)c2cc(NS(=O)(=O)c3ccccc3)ccc2O[C@@H](C)CCCCO[C@@H]1CN(C)C(=O)C1CCCCC1 | inactive | inactive | inactive
C[C@H](CO)N1C[C@H](C)[C@@H](CN(C)Cc2ccccc2)OCCCC[C@H](C)Oc2ccc(NS(=O)(=O)c3ccc(F)cc3)cc2C1=O | inactive | inactive | inactive
C[C@@H]1CN([C@@H](C)CO)C(=O)c2cccc(NC(=O)C3CCOCC3)c2O[C@H]1CN(C)Cc1ccc(C(=O)O)cc1 | inactive | inactive | inactive

SMILES | cytotoxicity call (HSkMC) | cytotoxicity call (HepG2) | growth inhibition call (S. aureus RN4220)
C[C@H]1CN([C@@H](C)CO)C(=O)c2cc(-c3ccncc3)cnc2O[C@@H]1CN(C)S(=O)(=O)c1ccc(F)cc1 | inactive | inactive | inactive
C[C@H]1CN([C@@H](C)CO)C(=O)CCCn2cc(nn2)CO[C@@H]1CN(C)C(=O)Nc1ccnc(N2CCOCC2)c1 | inactive | inactive | inactive
C[C@H]1CCCCO[C@@H](CN(C)C)[C@@H](C)CN([C@@H](C)CO)C(=O)c2cc(NC(=O)Nc3cccc4ccccc34)ccc2O1 | inactive | inactive | inactive
COc1ccc(NC(=O)N(C)C[C@@H]2Oc3c(NC(=O)Nc4cccc5ccccc45)cccc3C(=O)N([C@@H](C)CO)C[C@H]2C)cc1 | inactive | inactive | inactive
Cc1noc(C)c1NC(=O)N(C)C[C@@H]1Oc2ccc(NS(C)(=O)=O)cc2C(=O)N([C@@H](C)CO)C[C@@H]1C | inactive | inactive | inactive
CCCNC(=O)N1C[C@@H](C)[C@@H](OC)CN(C)C(=O)c2cc(NS(=O)(=O)CC(F)(F)F)ccc2OC[C@@H]1C | inactive | inactive | inactive
C[C@@H]1CCCCO[C@@H](CN(C)C(=O)NC2CCCCC2)[C@H](C)CN([C@H](C)CO)C(=O)c2cc(NC(=O)C3CCCCC3)ccc2O1 | inactive | inactive | inactive
C[C@@H]1CN([C@H](C)CO)C(=O)c2cc(C#CC3CCCC3)cnc2O[C@@H]1CN(C)S(=O)(=O)c1cccc(F)c1 | inactive | inactive | inactive
O=C(C[C@H]1C=C[C@@H](NC(=O)c2cnccn2)[C@H](CO)O1)NCc1ccccc1F | inactive | inactive | inactive
CC(C)NC(=O)N(C)C[C@H]1OCCCC[C@H](C)Oc2ccc(NC(=O)Nc3ccc(F)cc3)cc2C(=O)N([C@@H](C)CO)C[C@H]1C | inactive | inactive | inactive
COc1ccc(NC(=O)N(C)C[C@@H]2OCCCC[C@@H](C)Oc3ccc(NC(=O)Nc4ccccc4)cc3C(=O)N([C@@H](C)CO)C[C@H]2C)cc1 | inactive | inactive | inactive
C[C@H](CO)N1C[C@H](C)[C@@H](CN(C)Cc2ccncc2)OCCCC[C@H](C)Oc2ccc(NC(=O)Nc3ccc4c(c3)OCO4)cc2C1=O | inactive | inactive | inactive
COc1ccc2c3c(n(c2c1)C)[C@H](CO)N(Cc1ccccc1Cl)C[C@]13CCN(CC1)C(=O)CC1CC1 | inactive | inactive | inactive
C[C@@H]1CCCCO[C@@H](CN(C)C(=O)c2ccccc2)[C@@H](C)CN([C@@H](C)CO)C(=O)c2cc(NC(=O)Nc3ccc(C(F)(F)F)cc3)ccc2O1 | inactive | inactive | inactive
C[C@@H]1CN([C@@H](C)CO)C(=O)c2c(c3ccccc3n2C)-c2ccccc2CO[C@H]1CN(C)Cc1cccc(O)c1 | inactive | inactive | inactive
COc1cccc(S(=O)(=O)Nc2ccc3c(c2)C(=O)N(C)C[C@@H](OC)[C@@H](C)CN(C(=O)Cc2cccnc2)[C@@H](C)CO3)c1 | inactive | inactive | inactive
COc1ccc(NC(=O)N(C)C[C@@H]2Oc3ncc(C#CC(C)C)cc3C(=O)N([C@H](C)CO)C[C@H]2C)cc1 | inactive | inactive | inactive
Cc1noc(C)c1NC(=O)Nc1cccc2c1O[C@@H](CN(C)C(=O)NC(C)C)[C@H](C)CN([C@H](C)CO)C2=O | inactive | inactive | inactive
C[C@H]1CN([C@@H](C)CO)C(=O)c2cc(NC(=O)Nc3cccc4ccccc34)ccc2O[C@H]1CN(C)S(=O)(=O)c1ccccc1 | inactive | inactive | inactive
C[C@H]1CN([C@@H](C)CO)S(=O)(=O)c2ccc(C#CCC3CCCC3)cc2O[C@@H]1CN(C)C(=O)c1cnccn1 | inactive | inactive | inactive
Fc1ccc(-c2n[nH]c(=S)o2)cc1 | inactive | inactive | inactive
CCC(=O)OC(CC(=O)O)C[N+](C)(C)C.[Cl-] (centres undefined) | inactive | inactive | inactive
C[C@@H]1CN([C@H](C)CO)C(=O)Cc2cc(NC(=O)Nc3ccccc3)ccc2O[C@H]1CN(C)Cc1ccc(C(F)(F)F)cc1 | active | inactive | inactive
C[C@@H]1CCCCO[C@@H](CN(C)Cc2ccc3c(c2)OCO3)[C@@H](C)CN([C@H](C)CO)C(=O)c2cc(NC(=O)CCCCCC(=O)Nc3ccccc3N)ccc2O1 | inactive | inactive | inactive
COc1ccc(S(=O)(=O)N(C)C[C@@H]2Oc3ccc(NS(=O)(=O)c4ccc(C)cc4)cc3CC(=O)N([C@@H](C)CO)C[C@H]2C)cc1 | inactive | inactive | inactive
C[C@H]1CN([C@@H](C)CO)C(=O)c2cccc(NS(=O)(=O)c3cn(C)cn3)c2O[C@@H]1CN(C)C(=O)NC1CCCCC1 | inactive | inactive | inactive
